# The whole screen tested about 45,000 compounds, of which about 200 (0.44%) were called active. Inconclusive results (about 7%) are left out. Calls follow the shape of the dose curve; as a rule, active = well fitted activation curve with a large enough effect; inconclusive = small, poorly fitted or top-dose-only effect; inactive = no such curve, though single readings can be large or run the other way. The list shows a part of the results.
# Assay: qHTS of TDP-43 Inhibitors: NCGC Sytravon Library Screen; also: 0% is about no effect; nearly all actives have a fitted effect of over 55% in size
# Conditions: yeast TDP-43 toxicity rescue, BacTiter-Glo growth, 24 h; series mostly up to 46.1 µM; growth rescue (activation): at the top concentration
# Outline: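 TDP-43-expressing yeast, pregrown in raffinose, seeded at OD600 0.02 in galactose medium with compound for 24 hr at 30 deg C. Growth read by BacTiter-Glo luminescence, so rescue of toxicity appears as activation.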
row,Structure (SMILES),growth rescue (activation)
1,CCc1ccc(/C=C(\C#N)C(=O)NC2CCS(=O)(=O)C2)cc1 (configuration not stated),inactive: -23.5%
2,COc1ccc(C(=O)CSc2nnc(C(CO)NC(=O)c3ccc(OC)cc3)n2C)cc1 (configuration not stated),inactive: 7.4%
3,COc1cc(/C=N/n2c(-c3cc(C)[nH]n3)n[nH]c2=S)ccc1O,inactive: 1.06%
4,CC1CC(C)CN(CCCNS(=O)(=O)c2cc(Br)cc3c2N(C(=O)C2CC2)CC3)C1 (configuration not stated),inactive: -2.75%
5,O=C(CCl)NN=C(c1ccccc1)c1ccccc1,inactive: -8.98%
6,O=C(Cn1c(=O)c2c3c(sc2n(Cc2ccccc2)c1=O)CCCC3)NCCO,inactive: -5.81%
7,Cc1ccc(O)c(NC(=O)c2cc(-c3ccco3)on2)c1,inactive: 19.7%
8,CNc1nc(NCCOc2ccccc2Cl)c2sccc2n1,inactive: 1.76%
9,COc1ccccc1NC(=O)c1ncn(-c2ccccc2)n1,inactive: 26.3%
10,COc1ccc(NC(=S)N2CCC(NC(=O)c3ccccc3C)CC2)cc1,inactive: 10.1%
11,O=C(O)c1ccnc(Cl)c1,inactive: 7.82%
12,O=C(CNCc1ccco1)Nc1cc(S(=O)(=O)N2CCOCC2)ccc1N1CCOCC1,inactive: 5.94%
13,Cc1ccccc1NC(=O)c1cc[n+]([O-])cc1,inactive: 17.3%
14,O=C(CCN1C(=O)C2C3CCC(C3)C2C1=O)Nc1ccc(F)cc1 (configuration not stated),inactive: 7.34%
15,Cc1cc(Cl)ccc1NC(=S)NCc1ccccc1Cl,inactive: 22.3%
16,Cc1ccc(Cn2c(CN3CCC(C(=O)O)CC3)cc3ccccc32)cc1,inactive: 22.6%
17,C=CCn1c(SCc2csc(C)n2)nc2sc3c(c2c1=O)CCCC3,inactive: 47.9%
18,CC1(C)Cc2ccccc2C2=NNC(=O)C2=N1,inactive: -3.11%
19,CCc1nc2c(c(=O)c3ccccc3n2C)c(=O)n1C1CCCCCC1,inactive: 17.2%
20,Cc1ccc(-c2noc(C3CCCN(C(=O)c4ccc(Cl)cc4)C3)n2)o1 (configuration not stated),inactive: 12.6%
21,CC(C)(C)c1cc(C(=O)NCC(=O)OCC(=O)c2cccc([N+](=O)[O-])c2)cc(C(C)(C)C)c1,inactive: -14.6%
22,Cc1ccc(NC(=S)N(CCN2CCOCC2)Cc2cc3cc4c(cc3[nH]c2=O)OCO4)cc1,inactive: -7.56%
23,CCCCN(C=O)c1c(CC)nc2c(OCCC3CCCCC3)cccn12,inactive: -0.967%
24,CCN(CC)S(=O)(=O)c1ccc(C(=O)NC2=NCCS2)cc1,inactive: 16.2%
25,Cc1ccc(OCC(=O)N(C)C2CCCCC2)c([N+](=O)[O-])n1,inactive: 11.7%
26,Cc1ccc2[nH]c(=O)c(CN(CCCO)C(C)c3nnnn3Cc3ccco3)cc2c1 (configuration not stated),inactive: 1.03%

row,Structure (SMILES),growth rescue (activation)
1,CC1(C(=O)OCC(=O)Nc2ccc(S(=O)(=O)N3CCOCC3)cc2)CC1(Cl)Cl (configuration not stated),inactive: 0.431%
2,Cc1nn(-c2ccc(F)cc2)c(C)c1CN1CCN(CCC(C)C)C(CCO)C1 (configuration not stated),inactive: -3.95%
3,O=[N+]([O-])c1cc(S(=O)(=O)N2CCCC2)ccc1N/N=C/c1ccccn1,inactive: 14.8%
4,Cc1nc(N2CCN(S(=O)(=O)c3ccc(F)cc3)CC2)c2c(-c3cccs3)csc2n1,inactive: 5.39%
5,O=C(O)c1ccc2c(c1)C(=O)N(c1cccc3ccccc13)C2=O,inactive: -12.6%
6,NS(=O)(=O)c1ccc(CCNC(=O)CN2CCCCC2)cc1,inactive: 9.85%
7,CCc1ccc(C(=O)NCc2cnn(C)c2)s1,inactive: 9.24%
8,O=C(CNC(=O)C12CC3CC(CC(C3)C1)C2)N1CCN(S(=O)(=O)c2cccs2)CC1,inactive: 14.1%
9,CN(C(=O)CSc1nc2ccccc2c(=O)n1-c1ccccc1Cl)C1CCS(=O)(=O)C1 (configuration not stated),inactive: 14.2%
10,COc1ccc(NC(=O)C2Cc3c(-c4cccc(C(C)=O)c4)ccnc3O2)cn1 (configuration not stated),inactive: 6.25%
11,COc1cccc(Cn2nc3c4cc(F)ccc4n(Cc4ccc(F)cc4)cc-3c2=O)c1,inactive: -4.63%
12,CC(C)(C)NC(=O)C(c1ccc(O)cc1)N(C(=O)CCC(=O)Nc1nccs1)c1ccc(F)cc1 (configuration not stated),inactive: -4.26%
13,CC(C)(C)c1ccc(CCC2OCC(CN3CCOCC3)O2)cc1 (configuration not stated),inactive: -18.4%
14,COc1ccccc1NCC(=O)NC(=O)NC1CCCCC1,inactive: 4.65%
15,O=C(O)Cc1nc(-c2cccnc2)sc1-c1ccc(Br)cc1,inactive: 2.36%
16,COC(=O)/C=C1\SC(=NC(=O)c2ccc(-c3ccccc3)cc2)NC1=O,inactive: 23%
17,COC(=O)Nc1ccc([N+](=O)[O-])cc1OC,inactive: 18.2%
18,COCCNS(=O)(=O)c1ccc(Cl)c(C(=O)NC2CCN(Cc3ccccc3)CC2)c1,inactive: -2.72%
19,O=C(NCc1ccc(F)cc1)c1cc(C2CCCCN2S(=O)(=O)c2ccccc2)on1 (configuration not stated),inactive: 21.3%
20,CCCCc1ccc(S(=O)(=O)NC(=O)C2(C)CCN2C(=O)Cc2ccccc2)cc1 (configuration not stated),inactive: 25.2%
21,COc1ccc(OCCSc2nc(C)nc3ccccc23)cc1,inactive: 24.2%
22,O=C(O)c1ccc2c3c(cccc13)C(=O)N(c1ccccc1)C2=O,inactive: 6.05%
23,CN1CCN(c2nc(NCCOC34CC5CC(CC(C5)C3)C4)nc(OCC(F)(F)F)n2)CC1,inactive: 23.3%
24,Cc1ccc(-c2nc(S(=O)(=O)c3ccc(C)cc3)c(SCC(=O)NCC3CCCO3)o2)cc1 (configuration not stated),inactive: 9.5%
25,COc1ccc(OCc2nnc(SCC(=O)Nc3nnc(C4CC4)s3)n2C)cc1,inactive: 7.81%
26,O=[N+]([O-])c1ccccc1S(=O)(=O)N1CCN(Cc2ccsc2)CC1,inactive: 1.55%
